The supplement of paper PMC11417369
The other results are listed elsewhere or left out.

Test system: PfSIP2 AP2 domain 1 (GST-tagged)
Experiment: gcPBM binding intensity (ln(normalized median fluorescence intensity)); higher = stronger DNA binding
Procedure, shortened: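 In this array assay, P. falciparum DNA-binding domains with a GST tag, expressed in E. coli, were applied for 1 h to primer-extended double-stranded 36-bp intergenic genomic probes and negative controls on an Agilent 4 × 180k array. Bound protein was visualised with Alexa488 anti-GST antibody at 488 nm. Binding intensity is the highest Masliner-normalised natural-log median intensity across replicate spots of either probe orientation.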

Sequence | gcPBM binding intensity (ln)
CACCTTATAAATACTGCACACATAAAATATATATTA [CACACA_site8908] | 7.61
CTTATCAAAAAAAAAGCATGCCACAGGCAAAAGGTA [TGCATGCA_site574] | 6.79
ATATATATATATATATGTACATATATACATATACAT [XGTACX_site2350] | 9.39
ATATAAAAATGTGTATGTACACACTTTATTTTTAAT [XGTACX_site5272] | 7.02
ATCCTTTATTTTTTTTGTACATAAAAATAACTCGAG [XGTACX_site3885] | 7.27
TTTTTCTATAAAAAATGTACATATTTTATGAAGGAA [XGTACX_site821] | 7.32
AAATTACAAATACAAACACACAAATGTTTTTCATTC [CACACA_site3552] | 6.76
TTAAAAAACCTTAGATGTACAGTTATATATAAAATA [XGTACX_site6688] | 7.01
TGGAATAATACGCGTACACACATATATATATTAATA [CACACA_site131] | 7.29
TGAACACACGAGCACACACACACATCTATATTTATA [CACACA_site6607] | 7.22
AGGTATCAAAAATATGCATGCAATATTTTATGTAAT [TGCATGCA_site1055] | 6.98
TTAACATACACTCTAGTGCATATATATAACAAAATA [GTGCAC_site9724] | 8.23
ATTAAAACACAATATTCACACATGTATATTATATAT [CACACA_site5191] | 6.95
AATTTAAATCTTCAAAGTACTAAAAAAAAAAATAAT [XGTACX_site8566] | 7.03
ATCATATTTATATTGGTGCATTATGCATGAAATTTA [GTGCAC_site9571] | 9.94
AAACGATTAATGTGTACACACATAGTTATAAACATA [CACACA_site7073] | 7.05
TTACACATGTATTTGGTGCATGTTGTTAACAAAATA | 9.57
TATGCTTTGATGAAGACACACATATAGAAGCGTATT [CACACA_site1925] | 6.91
CGCCCACAGATATATACACACATATATAAATAAATA [CACACA_site6877] | 7.43
AAAACTATTTCTTTCAGTACATATTTGGACTTATAT [XGTACX_site4977] | 6.95
TACTTTTATAAAAATTGTACAAAAAAAAAAAAAAAA [XGTACX_site2266] | 7.12
TATGTTATAAAATATATATTATAATATGTATATATA [XGTACX_negctrl_site233] | 6.98

Sequence | gcPBM binding intensity (ln)
ATAATAAGCAGACACACACACACAAAAAAAAAAAAA [CACACA_site6477] | 7.05
ATATAAATTTAATACACACCCAAAAAAAAAAAAAAA [CACACA_site3750] | 6.89
TAAATAAATACATACACACACATACAGATATATATA [CACACA_site5690] | 7.02
TATTTTAACATGTTTTCAAAAATAAAACATATAAAT [CACACA_negctrl_site1598] | 6.71
TAATATGACATAAGGGGTACTATATATATATATATT [XGTACX_site386] | 7.46
AAACATTTACTATATTGTACTTAAGATCTTATCGTA [XGTACX_site3919] | 6.99
GAACTTTACAACCCAACACACAAAAAAGAAAAGAAA [CACACA_site1717] | 7.21
ATTGGTGTATGTTTATGTACTTATCACAATTATGAA [XGTACX_site7055] | 6.97
AATAGGAAAAGAAAAGCACACACATAAATAAATATA [CACACA_site8062] | 6.91
ATATGTTCATTTAAAAGTACTTAATATAACATTTTT [XGTACX_site3332] | 7.08
TCAAATTACTAAAATACACACATATTATAGATATAT [CACACA_site7233] | 6.83
TGTATATATAATAAAACACACATTTTTAATGTGCTC [CACACA_site1437] | 6.66
GTTTTATAAAAAGGCGCACACATATACATAAATATA [CACACA_site1864] | 7.55
TAAATACAAAAATGCACACGAAAAGTAATATATATA [CACACA_site6151] | 8.26
GATAAAGTACTTTATACACACAAATATTTATATATA [CACACA_site3974] | 7.17
AAAAAGAAAATATATACACACCAAAAAAAAAAAAAA [CACACA_site5698] | 6.73
TATTTGTGTATTTTTACACACATTAATATATTTATA [CACACA_site7562] | 6.79
TGTACAAATTATACTTCGAACGAAGGGCATACATAT [XGTACX_negctrl_site37] | 7.06
TATATATATATTATATGTACACATTTGTGAATTATT [XGTACX_site5848] | 8.07
TATAGATAACAAAAGTGTACATGTTGTATACACATG [XGTACX_site3471] | 7.01
AACAACTATTACTGCACACATTCTTACACTATATAA [CACACA_site654] | 7.74
TATATATATAAACACACACACACACCCAAGCGTAGC [CACACA_site4210] | 7.94

Sequence | gcPBM binding intensity (ln)
TATTCCTATATAAAGACACACATATGTAACTACGAT [CACACA_site4139] | 6.98
TGTGTTATATATAAAGAAAAAAAAAAAAAATATATA [CACACA_negctrl_site567] | 6.76
AAAAATTTAATTATTTGTACATAAAATACATTTCTG [XGTACX_site791] | 6.81
AATACATCATTAAAATGTACATATATATATACATTA [XGTACX_site132] | 6.96
ATTATAATAATGTGATGTACATTAATTGTCTTCCTA [XGTACX_site5404] | 6.89
GAAATAAGGGTTATTTCACACATTGCATGTATTTTC [CACACA_site5752] | 6.67
ATATATATTAATTTTGTGCACAAATGGAAATGTTTG [GTGCAC_site9971] | 8.34
TTTTTTTTTTTTTTATGTACTAAAAAATGAAAAATA [XGTACX_site6812] | 7.1
AAATACTTAACATTGGTGCATATTTGTAAAATTATT [GTGCAC_site9515] | 10.7
TTTTGGCTTCTAATATTATACAAAATGGTAAGGAAA [TGCATGCA_negctrl_site169] | 7.29
AGAATACAAAATTGCACACATATTGTGAAAATGTTA [CACACA_site4005] | 6.97
ATGCAATAATAATATTGTACGCATATATTTTTTACT [XGTACX_site3384] | 7.01
AAAAAAAAAAAAAAAACACACACATATATATAATAT [CACACA_site9038] | 7.63
TTATAAAATATTTTTTGTACACATAATAGTAAGACT [XGTACX_site933] | 7.13
AATACATGCTTATTTTAACACACAAATGGTAGTAAT [CACACA_site8154] | 6.84
GATTATTTTATAAGTACACACATTTATCTATAATAA [CACACA_site7256] | 7.33
GATTAATACACATTCTTCCGACATAATAAGAAAAAG [GTGCAC_negctrl_site7] | 7.05
AACCATGTTAACAACGCATGTATATCTATGGGTTTA [TGCATGCA_site419] | 6.72
CTTATATTTAGACACACACACAATAAAATGAAAAAA [CACACA_site1031] | 7.07
CCATAATATTATAGACGTACGAATATATATAAAAGA [XGTACX_site7295] | 7.2
CACCCACACCAACACACACACATATATAATATATAT [CACACA_site595] | 7.44
TTTTTTAAATGTCATTGTACATAATTCAATATATAA [XGTACX_site5] | 7

Sequence | gcPBM binding intensity (ln)
AGCTAATATATCTTATATTCATATAAAAAAATATAT [CACACA_negctrl_site1786] | 6.89
TGACTTTTTTTATGTTGTACTTATTATAAAAAAAAT [XGTACX_site7736] | 7.33
GTGTGATATAATTTTTTTAGAGCTTTATAATATTAT [CACACA_negctrl_site233] | 7.15
TATGTTGATGATATTACACACCCAATGAGAAAAGGA [CACACA_site7060] | 7.34
CAACCATTTGTAGGTAAACACACATTATTATTAATA [CACACA_site8842] | 6.92
AAGTTACAGAATATCACACATAAATTATCTGTATAT [CACACA_site5116] | 6.77
GTTAAGCAATATATATGTACTTATGGAATAGAAAAA [XGTACX_site3693] | 7.3
TCAATTAATTATTTTTGTACACAAGAATTACTGAAT [XGTACX_site6401] | 6.85
TTTGTCAAATAATATTGTACTAAAAAATTTTGCCTT [XGTACX_site7485] | 7.01
TATTTGTAATATAACACACACAAAAAAAGACTCGGA [CACACA_site1681] | 7.06
ATACACACAGCCTAAACATGCATATAGAAAAAAGAA [TGCATGCA_site1028] | 7.4
TGTTTATACATCAGGTGTACGCAAAATAATTGTATG [XGTACX_site206] | 7.67
TTTATTTACTATTAAAGTACTAAATCATATAATTAT [XGTACX_site2580] | 6.83
TATACATATACATATACACACACACCCATAAATAAA [CACACA_site8372] | 7.71
TTAACACATGCTTGGTCACACACGTATGCATATTTA [CACACA_site2127] | 7.2
TTAGTTTATTGGTACTGTACTTTTTTTTTCTCCATT [XGTACX_site8618] | 7.17
TATCATATATGAAGGTGTACGATTTATTATATAAAT [XGTACX_site7010] | 7.04
ATTTTTGAACGGTACAGTACAGAATTTAATTAACCC [XGTACX_site47] | 6.78
TTATTTAAAATTTTTATGCGTATATATATAGGAACA [CACACA_negctrl_site388] | 7.55
CACAAAATAAATTAAACACACAACATCATAGATGTA [CACACA_site4619] | 6.65
AATTTTTATTTGTACACACATACATATATATTATAT [CACACA_site993] | 7.41
TTTTTATTTACACTTTTTATTTATATATTATGTACG [CACACA_negctrl_site158] | 6.98
